Data as given in the supplement of paper PMC6135742.
Values joined by “and” are separate entries in the source; they are usually repeats but may differ in a detail not shown here. Identical values can stand only once. Counter-ions that a name gives are not always drawn. ± gives the standard deviation of the averaged measurements. Over roughly 2,600 compounds, “total cell number (DAPI+ nuclei) relative to DMSO vehicle control” has its median near -1.4; the lowest 2% begin near -23. The list shows a part of the results.

Test system: jimpy (Plp1 jimpy) mouse iPSC-derived oligodendrocyte progenitor cells
Experiment: total cell number (DAPI+ nuclei) relative to DMSO vehicle control (SDs above negative control mean); higher = more surviving cells
Settings: 10 µM; 3 days

Compound | total cell number
CC(=O)Oc1ccc(C(c2ccc(OC(C)=O)cc2)c2ccccn2)cc1 [Bisacodyl] | 2.35
CCOC(=O)CC(=O)N1CCSC1COc1ccccc1OC (stereo not drawn) [Moguisteine] | -1.39
N#CC[C@H](C1CCCC1)n1cc(-c2ncnc3[nH]ccc23)cn1 | -2.44
COc1cc(CNC(=O)CCCCCCC(C)C)ccc1O [Dihydrocapsaicin] | -4.48
CN(C[C@@H]1COCCO1)S(=O)(=O)Nc1ccc2ccc3ncc(-c4cnn(C)c4)cc3c(=O)c2c1 | -9.05
CCCc1nn(C)c2c(=O)[nH]c(-c3cc(S(=O)(=O)N4CCN(C)CC4)ccc3OCC)nc12 [Sildenafil Citrate] | -0.987
CCCc1nn(C)c2c(=O)[nH]c(-c3cc(S(=O)(=O)N4CCN(C)CC4)ccc3OCC)nc12 [Sildenafil citrate salt] | -1.42
OC[C@H]1NC[C@@H](O)[C@@H]1O [1,4-Dideoxy-1,4-imino-D-arabinitol] | -0.282
Cc1c(C(=O)N2CCOc3ccc(-c4ccc(N)nc4)cc3C2)ccc(S(C)(=O)=O)c1F | -3.21
CC(C)(O)CC(=O)NCCn1ccc2ncnc(Nc3ccc(Oc4cccc(C(F)(F)F)c4)c(Cl)c3)c21 | -0.607
CCC1(C)CC(=O)NC1=O (stereo not drawn) [Ethosuximide] | -0.463
C[C@H](Nc1ncnc2nc[nH]c12)c1cc2cccc(Cl)c2c(=O)n1-c1ccccc1 | -10.8
CC(NCCc1ccc(O)cc1)C(O)c1ccc(O)cc1 (stereo not drawn) [Ritodrine HCl] | -1.07
CC(NCCc1ccc(O)cc1)C(O)c1ccc(O)cc1 (stereo not drawn) [Ritodrine hydrochloride] | 0.863
Cc1nc2c([nH]1)c(=O)n(C)c(=O)n2Cc1ccco1 [Furafylline] | -0.322
NC1CONC1=O (racemic) [DL-Cycloserine] | -1.2
CN(C)CCCc1cc(C(=O)Nc2ccc(-c3ccncc3)cc2)ccc1O | -2.7
CC(C)c1cnn2c(NCc3ccccc3)cc(NCCCCCCN)nc12 | -17.6
COc1cc2nc(N3CCCN(C)CC3)nc(NC3CCN(Cc4ccccc4)CC3)c2cc1OC | -10.1 and -15.2
O=S(=O)(c1cccc2cnccc12)N1CCCNCC1 [Fasudil (HA-1077) HCl] | -0.616
Cc1nc2sccn2c(=O)c1CCN1CCC(=C(c2ccc(F)cc2)c2ccc(F)cc2)CC1 [Ritanserin] | -0.524
CCOC(=O)C1=C(C)NC(C)=C(C(=O)OC)C1c1cccc(Cl)c1Cl (stereo not drawn) [Felodipine] | 0.634 ± 0.76
O=C1c2c(O)ccc(O)c2C(=O)c2c(NCCNCCO)ccc(NCCNCCO)c21 [Mitoxantrone HCl] | 38.3
O=C1c2c(O)ccc(O)c2C(=O)c2c(NCCNCCO)ccc(NCCNCCO)c21 [Mitoxantrone] | 16.1
CCOC(=O)c1ccc(NC2CCCCC2)c(N)c1 [Ferrostatin-1 (Fer-1)] | -2.44
CCOC(=O)c1ccc(NC2CCCCC2)c(N)c1 [Ferrostatin-1] | -4.14

Compound | total cell number
O=C(NC(Cc1cc(=O)[nH]c2ccccc12)C(=O)O)c1ccc(Cl)cc1 (stereo not drawn) [Rebamipide] | -1.29
CCN1C(=O)C=CC1=O [N-Ethylmaleimide] | -0.302
COC(=O)/C=C/C(=O)OC [Dimethyl Fumarate] | -1.31
O=C(NNc1nc2cc(F)ccc2n2cccc12)c1cnccn1 | -16.2
CC(C)c1cc(C(C)C)c(CC(=O)NS(=O)(=O)Oc2c(C(C)C)cccc2C(C)C)c(C(C)C)c1 [Avasimibe] | -3.06
C[N+](C)(C)CCOC(N)=O [Carbachol] | -1.57
CN(c1ncccc1CNc1nc(Nc2ccc3c(c2)CC(=O)N3)ncc1C(F)(F)F)S(C)(=O)=O | -8.32 and -9.54 and -12.3
Cn1nc(C(C)(C)C)cc1C(=O)N[C@@H](Cc1cccc(Cl)c1)C(=O)NCC#N [Cathepsin Inhibitor 1] | -0.558
CN(C)CCc1c[nH]c2ccc(CS(=O)(=O)N3CCCC3)cc12 [Almotriptan Malate] | 1.71
CCc1ccc(OCc2ccccc2C(=O)Nc2ccc3nc(C)cc(N)c3c2)cc1 | -12.5
CC(CNC(=O)c1cccnc1)NC(=O)c1cccnc1 (stereo not drawn) [Nicaraven] | 0.325
O=C(Nc1ccccc1)N1CCN(c2nc(-c3ccccc3)ns2)CC1 | 0.543
CCN1CCCC1CNC(=O)c1cc(S(N)(=O)=O)ccc1OC (single isomer, unassigned; (-)) [(-)-Sulpiride] | -1.34
CCCCc1ncc(/C=C(\Cc2cccs2)C(=O)O)n1Cc1ccc(C(=O)O)cc1 [Eprosartan Mesylate] | -3.92
CCCCc1ncc(/C=C(\Cc2cccs2)C(=O)O)n1Cc1ccc(C(=O)O)cc1 [Eprosartan mesylate] | 0.0143
N[C@@H](Cc1ccc(O)c(O)c1)C(=O)O [L-3,4-Dihydroxyphenylalanine] | -0.745
CN1CCN2c3ccccc3Cc3ccccc3C2C1 (stereo not drawn) [Mianserin hydrochloride] | -4.12
CN1CCN2c3ccccc3Cc3ccccc3C2C1 (stereo not drawn) [Mianserin HCl] | -11.1
CCCCCCCCOc1ccccc1C(=O)Nc1ccc(C(=O)OCC[N+](C)(CC)CC)cc1 [Otilonium Bromide] | 0.445
CN1c2ccccc2C(=O)N2CCc3c([nH]c4ccccc34)C21 (stereo in doubt) [Evodiamine] | -6.87
O=c1cc(N2CCOCC2)oc2c(-c3ccccc3)cccc12 [LY-294,002 hydrochloride] | -4.34
O=c1cc(N2CCOCC2)oc2c(-c3ccccc3)cccc12 | -7.46
Cc1cnc(NC(=O)Nc2cc(Br)c(C)cc2OC[C@@H]2CNCCO2)cn1 | -9.83
O=C(O)c1cc(=O)c2ccccc2[nH]1 [Kynurenic acid] | -0.249
CC(C)NNC(=O)c1ccncc1 [Iproniazid phosphate] | -1.44
Cc1ccc(Sc2cncc3sc(C(N)=O)cc23)cc1 | 0.0291

Compound | total cell number
Cc1c(C(=O)Nc2ccc(N3C[C@@H](C)O[C@@H](C)C3)nc2)cccc1-c1ccc(OC(F)(F)F)cc1 [LDE225 (NVP-LDE225,Erismodegib)] | -6.46
Nc1cc(C(F)(F)F)c(-c2cc(N3CCOCC3)nc(N3CCOCC3)n2)cn1 [BKM120 (NVP-BKM120, Buparlisib)] | -11.1
OCC(CO)N[C@H]1C[C@](O)(CO)[C@@H](O)[C@H](O)[C@H]1O [Voglibose] | 2.41
CCOC(CN1CCN(CC(C)C(=O)c2ccccc2)CC1)c1ccccc1 (stereo not drawn) [Eprazinone 2HCl] | 1.16
C=CCNc1ncnc2ccc(Br)cc12 | -1.82
Cc1ccc(Nc2nccc(N(C)c3ccc4c(C)n(C)nc4c3)n2)cc1S(N)(=O)=O | -11.7
Cc1ccc(Nc2nccc(N(C)c3ccc4c(C)n(C)nc4c3)n2)cc1S(N)(=O)=O [Pazopanib] | -6.24
CCc1ccc(/C=C2/SC(=S)NC2=O)cc1 | -1.05 ± 0.18
COc1cc(Nc2ncc3c(n2)-c2ccc(Cl)cc2C(c2c(F)cccc2OC)=NC3)ccc1C(=O)O [Alisertib (MLN8237)] | -12.8
CCCCC(=O)N(Cc1ccc(-c2ccccc2-c2nnn[nH]2)cc1)[C@H](C(=O)O)C(C)C [Valsartan] | -2.01
CO[C@H]1C[C@@H]2CC[C@@H](C)[C@@](O)(O2)C(=O)C(=O)N2CCCC[C@H]2C(=O)O[C@H]([C@H](C)C[C@@H]2CC[C@@H](OC(=O)C(C)(CO)CO)[C@H](OC)C2)CC(=O)[C@H](C)/C=C(\C)[C@@H](O)[C@@H](OC)C(=O)[C@H](C)C[C@H](C)/C=C/C=C/C=C/1C [Temsirolimus] | -3.63
CO[C@H]1C[C@@H]2CC[C@@H](C)[C@@](O)(O2)C(=O)C(=O)N2CCCC[C@H]2C(=O)O[C@H]([C@H](C)C[C@@H]2CC[C@@H](OC(=O)C(C)(CO)CO)[C@H](OC)C2)CC(=O)[C@H](C)/C=C(\C)[C@@H](O)[C@@H](OC)C(=O)[C@H](C)C[C@H](C)/C=C/C=C/C=C/1C | -4.55
N#Cc1c(Oc2ccc(F)c(NC(=O)Cc3cccc(C(F)(F)F)c3)c2)ccc2nc(NC(=O)C3CC3)sc12 | -5.14
CCC[C@@H]1C[C@@H](C(=O)N[C@@H]([C@H]2O[C@H](SC)[C@H](O)[C@@H](O)[C@H]2O)[C@@H](C)O)N(C)C1 [Lincomycin HCl] | 0.306
O=c1cc[nH]c(=O)[nH]1 [Uracil] | -0.671
COc1ccc(-c2cc(=O)c3c(OC)c(OC)c(OC)c(OC)c3o2)cc1OC [Nobiletin] | -5.17
CCOC(=O)N1c2ccc(C(F)(F)F)cc2[C@@H](N(Cc2cc(C(F)(F)F)cc(C(F)(F)F)c2)C(=O)OC)C[C@H]1CC [Torcetrapib] | -3.59
Cc1ccc(C(=O)Nc2cccc(C(F)(F)F)c2)cc1Nc1nc(-c2cccnc2)nc2c1cnn2C | -4.71
Cc1cccc(-c2nn3c(c2-c2ccnc4ccc(C(N)=O)cc24)CCC3)n1 | 0.511
CC(C)c1nc(CN(C)C(=O)N[C@@H](CCN2CCOCC2)C(=O)N[C@H](CC[C@H](Cc2ccccc2)NC(=O)OCc2cncs2)Cc2ccccc2)cs1 [Cobicistat (GS-9350)] | -4.6
C#C[C@]1(O)CC[C@H]2[C@@H]3CCC4=Cc5oncc5C[C@]4(C)[C@H]3CC[C@@]21C [Danazol] | -0.947
Cc1cc(C)nc(NS(=O)(=O)c2ccc(NC(=S)NC(=O)COc3ccc(Br)cc3Cl)cc2)n1 | -1.47
O=C(Nc1ccc([N+](=O)[O-])cc1Cl)c1cc(Cl)ccc1O [Niclosamide] | -2.42
O=C(Nc1cccnc1)N1CCC(Cc2cccc(Oc3ccc(C(F)(F)F)cn3)c2)CC1 | 0.69
O=C(Nc1cccnc1)N1CCC(Cc2cccc(Oc3ccc(C(F)(F)F)cn3)c2)CC1 [PF 3845 hydrate] | 2.55
Cc1ccc(CNc2ncnc3ccc(-c4ccc(CO)o4)cc23)o1 | -1.93
